We go through 53 compounds from ChEMBL document CHEMBL4888484, “Replenishing the malaria drug discovery pipeline: Screening and hit evaluation of the MMV Hit Generation Library 1 (HGL1) against asexual blood stage Plasmodium falciparum ,using a nano luciferase reporter read-out” (2022).

Structures are written as SMILES. Hit rate of the full screen: of about 150,000 compounds, about 540 (0.36%) showed an effect of 50% or more. This is one part of the list.

The test deals with Plasmodium falciparum. Briefly: Primary screen in NF54 nanoGlo assay, in single point, at 2uM, 72h; a lower Z score goes with more inhibition. The format is functional, Erythrocyte. To be noted: timepoint 72 hour.
As for `O=C(NCc1ccco1)c1ccc(Cn2c(=O)c3ccccc3n(Cc3ccc(F)cc3Cl)c2=O)cc1`, the % Inhibition (in general, the change of the read-out against control, counted positive when it falls) is listed as -18% and the Z score came to 2.02.
On to `C=CCn1c(-c2cccc(Cl)c2)cn2cc(C(=O)NCC)nc2c1=O`, for which the “% Inhibition” value is listed as -9% and the Z score was 0.82.
For the compound `CC(C)CN1C(=O)CC[C@@H]2CN(C(=O)c3ccc4[nH]cnc4c3)CC[C@@H]21`, the “% Inhibition” value came out at 2% and the Z score was -0.29.
The matching figures for `Cc1c(C#N)c2ccccc2n1CC(=O)N1CCOC[C@@H]1CC(=O)NCCF`: 1% and -0.18.
For `CC(C)=CCN1C[C@@H]2CC[C@H]1CN(C(=O)c1[nH]c3c(F)cccc3c1C)C2`, the “% Inhibition” value is recorded as -17% and the Z score stood at 1.72.
The matching figures for `CN1[C@@H]2CC[C@H]1CN(S(=O)(=O)c1ccccc1)CC2`: 1% and -0.25.
`CCn1nccc1C(=O)Nc1ccc2c(c1)OCCO2`: the “% Inhibition” value is recorded as -12% and the Z score is 2.03.
In the case of `O=C(CCc1ccsc1)NCc1ccc(N2CCCCC2)nc1`, the “% Inhibition” value is on record as -6% and the Z score is listed as 1.11.
The matching figures for `O=C(c1ccc2ncccc2c1)N1CC(c2noc([C@@H]3CCCN3CC3CC3)n2)C1`: 11% and -1.29.
On the same counts, the results for `COCCN1CCCN(C(=O)[C@@]2(COC)CCN(C(=O)OC(C)(C)C)C2)CC1` are 2% and -0.23.
On to `CNC(=O)[C@@H]1C[C@@H](NCc2ccc(C(F)(F)F)cc2)CN1CC(c1ccccc1)c1ccccc1`, for which the “% Inhibition” value is given as 2% and the Z score is -0.22.
For `Cc1cccc(CC(=O)Nc2cnc(-c3cccnc3)nc2)c1`, the “% Inhibition” value was -29% and the Z score came to 2.55.
For `CCc1nn(Cc2cccnc2N)c(=O)c(C#N)c1CC`, the “% Inhibition” value was -8% and the Z score turned out to be 1.57.
The matching figures for `Cc1ncn(CCNC(=O)[C@@H]2CCc3ccccc32)c1C`: -7% and 1.03.
On to `CC(C)N(CCc1nccs1)C(=O)c1cc[nH]c1C1CCC1`, for which the “% Inhibition” value was -4% and the Z score is reported as 0.78.
Take `C=CCOc1ccc(CN2CC[C@]3(O)CCN(C(=O)N4CCCC4)C[C@@H]3C2)cc1`: the “% Inhibition” value is on record as -1% and the Z score was 0.12.
On to `Cc1ccccc1-c1nc2nc(C)c(CC(=O)N3CCCCCC3)c(C)n2n1`, for which the “% Inhibition” value is 28% and the Z score was -3.77.
On to `Cc1ccc(-c2nn(-c3ccccc3)cc2C(=O)N2CCC(C(=O)O)CC2)o1`, for which the “% Inhibition” value stood at 0% and the Z score was 0.02.
Regarding `Cc1ccc(C[C@H](C)Nc2ccnc3c2cnn3C)s1`, the “% Inhibition” value was -16% and the Z score was 1.68.
Consider `CC(C)NC(=O)[C@@H]1CC2(CN(C(=O)NCc3ccco3)C2)CN1C`, for which the “% Inhibition” value is -5% and the Z score was 0.56.
On to `O=C(CC1CCCCC1)NC1CCN(Cc2ccncc2Cl)CC1`, for which the “% Inhibition” value is given as -6% and the Z score stood at 1.01.
For the compound `CCn1ncc(CN2CCCC[C@H]2C(=O)NCC(F)F)n1`, the “% Inhibition” value worked out at 28% and the Z score was -3.14.
On the same counts, the results for `COc1ccc(S(=O)(=O)N(C)c2ccnc(C(=O)NCc3ccc(F)cc3)c2)cc1` are -7% and 1.15.
On to `COCCN(Cc1cc2ccc(OC)cc2nc1N(C)C)C(=O)CCn1nc(C)cc1C`, for which the “% Inhibition” value turned out to be 4% and the Z score is -0.57.
The matching figures for `Cc1cnn(CCC(=O)N2CC(n3ccnc3C)C2)c1`: -3% and 0.43.
The matching figures for `CC1(C)CC(=O)c2cn(-c3ccc(Cl)cc3)c(=O)c(C(=O)N3CCCCC3)c2C1`: -12% and 1.34.
As for `Brc1cc2c(cc1C(N1CCOCC1)N1CCOCC1)OCO2`, the “% Inhibition” value is listed as -6% and the Z score is listed as 1.06.
Consider `COC(=O)[C@H](Cc1ccccc1)NC(=O)C1CCCc2ccccc21` (stereo partly specified), for which the “% Inhibition” value is listed as -6% and the Z score turned out to be 1.01.
For the compound `Cc1noc(C)c1C(=O)N1CCC2(CCN(CCC(C)(C)C)CC2)CC1`, the “% Inhibition” value is given as -3% and the Z score is 0.54.
On the same counts, the results for `O=C(Nc1ccn(CCF)n1)c1ccsc1C(F)(F)F` are -8% and 1.17.
For the compound `CC(C(=O)NCC1CCCO1)N1CCCC(Cn2cncn2)C1` (stereo unspecified), the “% Inhibition” value is listed as -7% and the Z score came to 0.58.
With `O=C(NC[C@H]1CCCO1)c1ccc(-c2noc(-c3ccccc3)n2)s1`, the “% Inhibition” value is listed as -5% and the Z score stood at 0.66.
As for `COC[C@H]1[C@H](NC(=O)CCn2cc(Cl)cn2)[C@H]2CCO[C@H]21`, the “% Inhibition” value is -11% and the Z score was 1.23.
Turning to `Cc1nc(-c2cccc(F)c2)nc(N2CCN(C(=O)c3ccc(-c4ccccc4)cc3)CC2)c1Cc1ccccc1`, the “% Inhibition” value is listed as -3% and the Z score stood at 0.49.
The matching figures for `CC1CC(C)CN(C(=O)CN2CCC3(CC2)OCCO3)C1` (stereo unspecified): -5% and 0.7.
For the compound `CCOC(=O)c1nnn(-c2nc(OCC)nc(N3CCOCC3)n2)c1-c1ccccc1`, the “% Inhibition” value was -15% and the Z score came to 2.04.
For `CC(=O)N1c2cc(S(=O)(=O)Nc3ccccc3F)c(Br)cc2C[C@@H]1C`, the “% Inhibition” value is on record as -2% and the Z score worked out at 0.21.
Consider `CCC(NC(=O)N1CCC(C)CC1)(C(F)(F)F)C(F)(F)F`, for which the “% Inhibition” value is 1% and the Z score is listed as -0.11.
Regarding `COc1nc(OC)nc(-c2ccc(O)cc2)n1`, the “% Inhibition” value is recorded as -11% and the Z score came to 2.02.
`Cc1nsc(N2CC3C(C2)C3(C)C)n1` (stereo unspecified): the “% Inhibition” value is recorded as -10% and the Z score came to 1.38.
Take `COCc1nsc(N2CCC(OCC3CCCC3)CC2)n1`: the “% Inhibition” value is listed as -11% and the Z score was 1.28.
On the same counts, the results for `CCOc1ccc(CONC(=O)COc2ccc(Cl)cc2Cl)cc1Cl` are -6% and 0.8.
In the case of `Cc1oncc1C(=O)N1CC[C@H](Oc2cncc(N(C)C)n2)C1`, the “% Inhibition” value is on record as -11% and the Z score is listed as 1.27.
Turning to `CC1CCN(CCn2ccnc2C(C)C)CC1`, the “% Inhibition” value is recorded as -9% and the Z score is 1.33.
As to `O=C(Cn1c(NCCO)nc2ccccc21)c1ccc2c(c1)OCO2`, the “% Inhibition” value is given as -12% and the Z score came out at 1.08.
As for `Cc1nc(-c2cccc(NC(=O)CNC(=O)c3sc4ccccc4c3Cl)c2)cs1`, the “% Inhibition” value is on record as -2% and the Z score is recorded as 0.34.
Regarding `CC1CCc2sc(C(=O)N3CCC(C(=O)O)C3)cc2C1` (stereo unspecified), the “% Inhibition” value turned out to be 5% and the Z score is reported as -0.77.
Consider `Cc1ccccc1[C@@H](C)C(=O)NCC(=O)N1CCCO1`, for which the “% Inhibition” value is listed as -3% and the Z score is reported as 0.47.
`C[C@@H]1N(C(=O)C(C)(C)NC(=O)c2ccccc2)CCC12CCOCC2`: the “% Inhibition” value is recorded as -6% and the Z score turned out to be 0.52.
The matching figures for `Cc1cc2nn(CC(=O)Nc3ccc(C)c(F)c3)c(=O)n2c(Nc2ccc(C)c(F)c2)n1`: -22% and 2.3.
Turning to `Cc1ccnc(N(C)CCc2c(C)n[nH]c2C)n1`, the “% Inhibition” value came out at 4% and the Z score is -0.71.
With `O=C(COc1ccccc1F)NC(CO)C(O)c1cccnc1` (stereo unspecified), the “% Inhibition” value is reported as -13% and the Z score amounted to 1.72.
As to `O=C1NCCC[C@H]1c1ncnn1CC(F)(F)F`, the “% Inhibition” value is -15% and the Z score came to 1.7.
